Variants at the floor of the assay are shown more often than the library holds them.
B1: tRNA (parent)
chain: CUCUCGGUAGCCAAGUUGGUUUAAGGCGCAAGACUUUAAUUUAUCACUACGAAAUCUUGAGAUCGGGCGUUCGACUCGCCCCCGGGAGAUUUUUUCCUCGAGCAA

Variants of: B1
Assay: nonsense suppression (GFP-seq) (ratio to wild type); higher = more function; SUP4oc tRNA, yeast GFP reporter sort-seq
Summary of the method: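 Yeast were grown in raffinose/galactose medium with 80 mg/L adenine, each strain bearing a genome-integrated ochre-suppressor tRNA variant from a ~3% random-mutation library, a galactose-driven GFP ochre reporter, and RFP. After sorting into GFP/RFP bins, every bin was sequenced on an Illumina platform at phred ≥30. The GFPSEQ value, a measure of nonsense suppression, is the weighted bin median GFP/RFP relative to the unmutated parent tRNA, using each variant's estimated cell share per bin as the weight. Only variants with ≥100 reads and ≥30 cells were included.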

A23C and U22G U71A cannot be ordered by nonsense suppression: no more than 0.026 for the first, no more than 0.026 for the second.

U21C G67U and A23C G32A U55A G59A G66C C80U cannot be ordered by nonsense suppression: no more than 0.026 for the first, no more than 0.026 for the second.

U21G G28C A60C C81G and U21C A74C cannot be ordered by nonsense suppression: no more than 0.026 for the first, no more than 0.026 for the second.

A23C A24C and U22G U76G cannot be ordered by nonsense suppression: no more than 0.026 for the first, no more than 0.026 for the second.

U22C A30U C83A and U22C G84C cannot be ordered by nonsense suppression: no more than 0.026 for the first, no more than 0.026 for the second.

Compared with U22G G66C C68A G86A, U21C A30G is higher in nonsense suppression: no more than 0.026 for the first, 0.967 for the second.

U22G G32A G61C and U22G C34G A60G C75U cannot be ordered by nonsense suppression: no more than 0.026 for the first, no more than 0.026 for the second.

U22A G66C C77U and U22A G66U G86C cannot be ordered by nonsense suppression: no more than 0.026 for the first, no more than 0.026 for the second.

U22C C27A and U22C C56G A62G cannot be ordered by nonsense suppression: no more than 0.026 for the first, no more than 0.026 for the second.

U21A C83G G84C and A23C A62G C82A cannot be ordered by nonsense suppression: no more than 0.026 for the first, no more than 0.026 for the second.

U22G G69C and U22C A33C G78A A89U cannot be ordered by nonsense suppression: no more than 0.026 for the first, no more than 0.026 for the second.

U22G A31C U76A and U22C C79G G86U cannot be ordered by nonsense suppression: no more than 0.026 for the first, no more than 0.026 for the second.

A23C G26A and U21C A30C A54U G59C U71G cannot be ordered by nonsense suppression: no more than 0.026 for the first, no more than 0.026 for the second.

Compared with U21G G28U U76C, U21C G78C is higher in nonsense suppression: no more than 0.026 for the first, 0.211 for the second.

U22C G25U and U21A C72G cannot be ordered by nonsense suppression: no more than 0.026 for the first, no more than 0.026 for the second.

U21A C72A and U21G U22A A31U G88C cannot be ordered by nonsense suppression: no more than 0.026 for the first, no more than 0.026 for the second.

U21G G67U U71A and A23C A60G A74G cannot be ordered by nonsense suppression: no more than 0.026 for the first, no more than 0.026 for the second.

U21A C56A and U22A G32C A74U G84U cannot be ordered by nonsense suppression: no more than 0.026 for the first, no more than 0.026 for the second.

U21G G26U A60G G86U and U21A A74C cannot be ordered by nonsense suppression: no more than 0.026 for the first, no more than 0.026 for the second.

U21G A31U A60U G61U and U22G A62G C80U cannot be ordered by nonsense suppression: no more than 0.026 for the first, no more than 0.026 for the second.

Compared with U21C G61A, U22A A23G C64G is lower in nonsense suppression: 0.881 for the first, no more than 0.026 for the second.

U22C C29G A87G and U22C C29G A87U cannot be ordered by nonsense suppression: no more than 0.026 for the first, no more than 0.026 for the second.

U21G G84C and U21G G84A cannot be ordered by nonsense suppression: no more than 0.026 for the first, no more than 0.026 for the second.

U21C C27A A33G U57C G88C and U22G A54U U57C cannot be ordered by nonsense suppression: no more than 0.026 for the first, no more than 0.026 for the second.

U21C A31G G69U C83A and U21C G25A G32A C34G cannot be ordered by nonsense suppression: no more than 0.026 for the first, no more than 0.026 for the second.

U22G A33C and U21A U35A C81G G88A cannot be ordered by nonsense suppression: no more than 0.026 for the first, no more than 0.026 for the second.

U21A C34U and U21A C34A cannot be ordered by nonsense suppression: no more than 0.026 for the first, no more than 0.026 for the second.

Going from U22A G65A G66U G67C to U21G A24C, the nonsense suppression rises from no more than 0.026 to 0.493.

U22G G73C and U21C G25A G84A G85U cannot be ordered by nonsense suppression: no more than 0.026 for the first, no more than 0.026 for the second.

U22C C77G and U21A C80A cannot be ordered by nonsense suppression: no more than 0.026 for the first, no more than 0.026 for the second.

U22G G65C A87U and U21A U71A cannot be ordered by nonsense suppression: no more than 0.026 for the first, no more than 0.026 for the second.

Going from A23C A54G G73U to U22C U76C, the nonsense suppression rises from no more than 0.026 to 1.02.

U22G G73C A74U and U21C A23U A33C C75A cannot be ordered by nonsense suppression: no more than 0.026 for the first, no more than 0.026 for the second.

U22G A31U U57A A74G C80U and U22G C29G C34A cannot be ordered by nonsense suppression: no more than 0.026 for the first, no more than 0.026 for the second.

U21A G69U and U21A A23G G61A cannot be ordered by nonsense suppression: no more than 0.026 for the first, no more than 0.026 for the second.

A23C C56G and U22G C56U cannot be ordered by nonsense suppression: no more than 0.026 for the first, no more than 0.026 for the second.

U22G G66C and U22A G28C A30G U58A A74C cannot be ordered by nonsense suppression: no more than 0.026 for the first, no more than 0.026 for the second.

U21C C27A C29U G65C G78A and U21A C34G A54G cannot be ordered by nonsense suppression: no more than 0.026 for the first, no more than 0.026 for the second.

U21C C29A U57G and U21A C56G C68U U71G U76C cannot be ordered by nonsense suppression: no more than 0.026 for the first, no more than 0.026 for the second.

U22C G32C U55A G69C G85C and U22C G59U cannot be ordered by nonsense suppression: no more than 0.026 for the first, no more than 0.026 for the second.

U22C U58C G84U and U22G C34A G85A cannot be ordered by nonsense suppression: no more than 0.026 for the first, no more than 0.026 for the second.

A23C G25A and U22C C34U C77A G84U cannot be ordered by nonsense suppression: no more than 0.026 for the first, no more than 0.026 for the second.
